For two molecules, binding results are on record in paper PMC5556061 (Scientific Reports, 2017).

No constants are given. Whether binding was seen depends on the method and setting. Some binding calls cover weakened binding; strength is not graded here. Sequences can lack the tags named with a protein.

The target in assay [1] is T1, Flag-DOK7 (human) (UniProt Q18PE1).
T1 sequence: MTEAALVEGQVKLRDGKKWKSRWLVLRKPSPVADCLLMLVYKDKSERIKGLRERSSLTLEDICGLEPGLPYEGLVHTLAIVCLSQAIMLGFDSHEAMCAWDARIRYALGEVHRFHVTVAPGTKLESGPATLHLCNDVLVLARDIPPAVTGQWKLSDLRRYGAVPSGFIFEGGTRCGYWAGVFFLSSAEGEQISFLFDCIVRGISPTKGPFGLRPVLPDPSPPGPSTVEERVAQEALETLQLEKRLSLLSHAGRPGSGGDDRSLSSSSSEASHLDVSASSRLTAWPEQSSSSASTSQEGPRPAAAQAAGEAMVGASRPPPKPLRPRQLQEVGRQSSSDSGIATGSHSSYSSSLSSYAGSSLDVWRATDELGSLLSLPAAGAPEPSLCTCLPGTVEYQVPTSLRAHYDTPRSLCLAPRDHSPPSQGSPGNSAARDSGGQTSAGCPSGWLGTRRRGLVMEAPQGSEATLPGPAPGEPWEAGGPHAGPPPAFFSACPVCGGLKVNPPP
The assay is described as follows: far-Western, overlay or dot blot; Flag proteins immunoprecipitated, eluted, run on SDS-PAGE and blotted; membrane incubated overnight with 2 µg/ml recombinant human BCAR1-GST in 1% BSA in TBST; anti-GST antibody; both purified.

Assay [2] concerns the target T2, Flag-GLIS2 (not stated (cDNA from the BLM melanoma cell line)) (UniProt Q9BZE0).
T2 sequence: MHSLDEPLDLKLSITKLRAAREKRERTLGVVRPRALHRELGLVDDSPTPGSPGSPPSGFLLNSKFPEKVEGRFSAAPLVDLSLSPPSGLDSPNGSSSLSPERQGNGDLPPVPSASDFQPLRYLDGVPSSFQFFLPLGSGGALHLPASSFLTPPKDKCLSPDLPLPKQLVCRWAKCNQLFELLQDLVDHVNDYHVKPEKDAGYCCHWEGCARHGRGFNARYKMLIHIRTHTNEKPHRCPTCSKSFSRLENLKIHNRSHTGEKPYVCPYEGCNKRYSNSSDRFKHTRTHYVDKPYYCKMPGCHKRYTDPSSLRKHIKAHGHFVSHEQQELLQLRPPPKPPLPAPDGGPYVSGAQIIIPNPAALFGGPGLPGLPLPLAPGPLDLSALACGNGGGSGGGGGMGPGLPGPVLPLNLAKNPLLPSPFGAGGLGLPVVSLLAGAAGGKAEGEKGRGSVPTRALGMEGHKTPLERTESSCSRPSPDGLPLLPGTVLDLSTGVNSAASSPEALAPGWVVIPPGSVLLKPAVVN
Described as above.

Assay [3] has as its target CAS SH3 domain (GST tag removed, for NMR) (mouse) (UniProt Q61140). Kind of assay: NMR solution structure; free 15N/13C-labelled CAS SH3 domain; 25 °C; 25 mM sodium phosphate pH 7.5, 100 mM NaCl, 1 mM TCEP; both purified.

B1: recombinant human BCAR1 (CAS/BCAR1-GST) (protein, UniProt P56945 1-870)
chain: MNHLNVLAKALYDNVAESPDELSFRKGDIMTVLEQDTQGLDGWWLCSLHGRQGIVPGNRLKILVGMYDKKPAGPGPGPPATPAQPQPGLHAPAPPASQYTPMLPNTYQPQPDSVYLVPTPSKAQQGLYQVPGPSPQFQSPPAKQTSTFSKQTPHHPFPSPATDLYQVPPGPGGPAQDIYQVPPSAGMGHDIYQVPPSMDTRSWEGTKPPAKVVVPTRVGQGYVYEAAQPEQDEYDIPRHLLAPGPQDIYDVPPVRGLLPSQYGQEVYDTPPMAVKGPNGRDPLLEVYDVPPSVEKGLPPSNHHAVYDVPPSVSKDVPDGPLLREETYDVPPAFAKAKPFDPARTPLVLAAPPPDSPPAEDVYDVPPPAPDLYDVPPGLRRPGPGTLYDVPRERVLPPEVADGGVVDSGVYAVPPPAEREAPAEGKRLSASSTGSTRSSQSASSLEVAGPGREPLELEVAVEALARLQQGVSATVAHLLDLAGSAGATGSWRSPSEPQEPLVQDLQAAVAAVQSAVHELLEFARSAVGNAAHTSDRALHAKLSRQLQKMEDVHQTLVAHGQALDAGRGGSGATLEDLDRLVACSRAVPEDAKQLASFLHGNASLLFRRTKATAPGPEGGGTLHPNPTDKTSSIQSRPLPSPPKFTSQDSPDGQYENSEGGWMEDYDYVHLQGKEEFEKTQKELLEKGSITRQGKSQLELQQLKQFERLEQEVSRPIDHDLANWTPAQPLAPGRTGGLGPSDRQLLLFYLEQCEANLTTLTNAVDAFFTAVATNQPPKIFVAHSKFVILSAHKLVFIGDTLSRQAKAADVRSQVTHYSNLLCDLLRGIVATTKAAALQYPSPSAAQDMVERVKELGHSTQQFRRVLGQLAAA
Consider B1, for which the binding result in assay [1] and in assay [2] was “binds” each time.

B2: GST-fused CAS SH3 domain (domain or fragment, mouse, UniProt Q61140 3-65, looked up)
chain: VPNVLAKALYDNVAESPDELSFRKGDIMTVLERDTQGLDGWWLCSLHGRQGIVPGNRLKILVG
notes: Crk-associated substrate (CAS), mouse, SH3 domain; also called GST-CAS SH3; GST-SH3; source: E. coli BL21 (DE3), pGEX-2TK, purified (glutathione agarose); not shown: GST, N-terminal, kept
As for B2, the binding entry in assay [3] was “no binding (tested: ~1 mM)”.
